Results taken from article PMC3160840.
These are yes or no findings as the source states them, for the method shown. Binding seen in cells or lysates may run through a third protein. Some binding calls cover weakened binding; strength is not graded here.

By UniProt entry, the sequences of proteins in these tests, tags left out.
UniProt P03430: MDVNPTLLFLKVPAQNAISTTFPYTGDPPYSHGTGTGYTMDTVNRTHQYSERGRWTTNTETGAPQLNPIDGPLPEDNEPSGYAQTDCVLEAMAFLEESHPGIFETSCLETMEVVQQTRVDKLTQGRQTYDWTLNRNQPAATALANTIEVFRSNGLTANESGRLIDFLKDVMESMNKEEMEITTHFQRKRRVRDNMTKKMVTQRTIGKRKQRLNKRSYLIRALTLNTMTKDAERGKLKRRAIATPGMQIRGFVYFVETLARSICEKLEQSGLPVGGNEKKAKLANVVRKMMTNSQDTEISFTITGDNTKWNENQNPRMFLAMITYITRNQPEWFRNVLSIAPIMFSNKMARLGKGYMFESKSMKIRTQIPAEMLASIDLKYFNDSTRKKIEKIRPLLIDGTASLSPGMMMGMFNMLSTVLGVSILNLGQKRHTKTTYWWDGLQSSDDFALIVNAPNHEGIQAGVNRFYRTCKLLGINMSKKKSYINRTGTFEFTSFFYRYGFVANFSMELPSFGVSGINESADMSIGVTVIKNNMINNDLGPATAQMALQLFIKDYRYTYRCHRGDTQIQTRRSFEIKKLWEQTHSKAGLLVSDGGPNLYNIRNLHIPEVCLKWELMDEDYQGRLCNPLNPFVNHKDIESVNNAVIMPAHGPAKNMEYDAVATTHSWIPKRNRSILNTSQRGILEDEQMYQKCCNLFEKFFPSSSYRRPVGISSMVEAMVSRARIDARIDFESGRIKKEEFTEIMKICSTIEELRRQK
UniProt P03427: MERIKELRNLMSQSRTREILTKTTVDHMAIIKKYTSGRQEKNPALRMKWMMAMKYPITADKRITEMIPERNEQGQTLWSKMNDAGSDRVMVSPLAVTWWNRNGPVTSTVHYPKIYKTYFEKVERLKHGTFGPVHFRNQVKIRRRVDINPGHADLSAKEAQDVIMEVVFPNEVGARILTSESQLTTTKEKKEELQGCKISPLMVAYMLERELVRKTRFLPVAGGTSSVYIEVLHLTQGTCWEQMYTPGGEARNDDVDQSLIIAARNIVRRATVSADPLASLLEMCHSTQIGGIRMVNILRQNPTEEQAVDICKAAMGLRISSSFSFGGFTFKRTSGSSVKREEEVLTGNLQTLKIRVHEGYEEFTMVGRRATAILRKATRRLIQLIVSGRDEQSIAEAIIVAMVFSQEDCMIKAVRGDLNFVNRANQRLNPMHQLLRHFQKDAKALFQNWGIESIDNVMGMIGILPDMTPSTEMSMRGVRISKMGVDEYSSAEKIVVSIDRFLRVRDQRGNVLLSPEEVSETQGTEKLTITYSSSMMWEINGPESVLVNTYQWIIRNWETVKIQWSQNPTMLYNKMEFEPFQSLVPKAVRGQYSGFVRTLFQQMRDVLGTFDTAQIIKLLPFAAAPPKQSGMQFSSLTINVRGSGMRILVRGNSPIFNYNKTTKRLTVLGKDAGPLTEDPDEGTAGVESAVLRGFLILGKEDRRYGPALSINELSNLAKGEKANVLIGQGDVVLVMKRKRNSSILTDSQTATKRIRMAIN
UniProt P15682: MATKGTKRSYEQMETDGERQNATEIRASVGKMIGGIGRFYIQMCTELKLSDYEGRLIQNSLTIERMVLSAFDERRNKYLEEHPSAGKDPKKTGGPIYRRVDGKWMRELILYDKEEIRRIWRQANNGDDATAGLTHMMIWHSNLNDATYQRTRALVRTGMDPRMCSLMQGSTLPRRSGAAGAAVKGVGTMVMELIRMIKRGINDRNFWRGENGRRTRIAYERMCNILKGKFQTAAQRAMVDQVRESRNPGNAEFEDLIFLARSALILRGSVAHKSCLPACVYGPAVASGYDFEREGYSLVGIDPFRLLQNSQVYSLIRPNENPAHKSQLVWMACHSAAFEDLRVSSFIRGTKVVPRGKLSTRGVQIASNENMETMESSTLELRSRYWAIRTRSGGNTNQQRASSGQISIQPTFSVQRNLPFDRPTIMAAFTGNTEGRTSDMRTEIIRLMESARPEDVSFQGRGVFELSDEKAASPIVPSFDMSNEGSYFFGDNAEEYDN

Key:
[1] = target: FLAG-tagged PB1 (influenza A virus A/WSN/33 (H1N1)) (UniProt P03430); assay: co-IP
[2] = target: FLAG-tagged PB2 (influenza A virus A/WSN/33 (H1N1)) (UniProt P03427); assay: co-IP

## Myc-tagged NP (from UniProt P15682 1-498)
[1]
  binding: binds
[2]
  binding: binds
